# Reference: the supplement of paper PMC8728848
# The list shows a part of the results.
# Legend:
# Assay in all cases: glycan array binding signal (z-score within array); higher = stronger binding
# Conditions in all cases: glycan notation: IUPAC condensed, linker removed
# [1] = target: Gal(a1-6)Glc
# In short: (§1)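 The binding signal is a Z-score computed within each array and averaged over linkers. Arrays of the same protein sequence at different concentrations or buffers were also averaged together. Data originate from 3228 arrays in the Consortium for Functional Glycomics database, kept only where the protein sequence was available.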
# [2] = target: Gal(b1-2)Gal
# In short: as §1
# [3] = target: Gal(b1-3)Gal
# In short: as §1
# [4] = target: Gal(b1-3)Gal(b1-4)GlcNAc
# In short: as §1
# [5] = target: Gal(b1-3)GalNAc
# In short: as §1
# [6] = target: Gal(b1-3)GalNAc(a1-3)[Fuc(a1-2)]Gal(b1-4)Glc
# In short: as §1
# [7] = target: Gal(b1-3)GalNAc(a1-3)[Fuc(a1-2)]Gal(b1-4)GlcNAc
# In short: as §1
# [8] = target: Gal(b1-3)GalNAc(b1-3)Gal
# In short: as §1
# [9] = target: Gal(b1-3)GalNAc(b1-3)Gal(a1-4)Gal(b1-4)Glc
# In short: as §1
# [10] = target: Gal(b1-3)GalNAc(b1-4)Gal(b1-4)Glc
# In short: as §1
# [11] = target: Gal(b1-3)GalNAc(b1-4)[Neu5Ac(a2-3)]Gal(b1-4)Glc
# In short: as §1
# [12] = target: Gal(b1-3)GlcNAc
# In short: as §1
# [13] = target: Gal(b1-3)GlcNAc(a1-3)Gal(b1-4)GlcNAc
# In short: as §1
# [14] = target: Gal(b1-3)GlcNAc(a1-6)Gal(b1-4)GlcNAc
# In short: as §1
# [15] = target: Gal(b1-3)GlcNAc(b1-2)Man
# In short: as §1
# [16] = target: Gal(b1-3)GlcNAc(b1-2)Man(a1-3)[Gal(b1-3)GlcNAc(b1-2)Man(a1-6)]Man(b1-4)GlcNAc(b1-4)GlcNAc
# In short: as §1
# [17] = target: Gal(b1-3)GlcNAc(b1-2)Man(a1-3)[Gal(b1-3)GlcNAc(b1-2)Man(a1-6)]Man(b1-4)GlcNAc(b1-4)[Fuc(a1-6)]GlcNAc
# In short: as §1
# [18] = target: Gal(b1-3)GlcNAc(b1-2)Man(a1-3)[GlcNAc(b1-4)][Gal(b1-3)GlcNAc(b1-2)Man(a1-6)]Man(b1-4)GlcNAc(b1-4)GlcNAc
# In short: as §1
# [19] = target: Gal(b1-3)GlcNAc(b1-2)[Gal(b1-3)GlcNAc(b1-6)]Man(a1-6)[Gal(b1-3)GlcNAc(b1-2)Man(a1-3)]Man(b1-4)GlcNAc(b1-4)GlcNAc
# In short: as §1
# [20] = target: Gal(b1-3)GlcNAc(b1-3)Gal(b1-3)GlcNAc
# In short: as §1
# [21] = target: Gal(b1-3)GlcNAc(b1-3)Gal(b1-4)Glc
# In short: as §1
# [22] = target: Gal(b1-3)GlcNAc(b1-3)Gal(b1-4)GlcNAc
# In short: as §1
# [23] = target: Gal(b1-3)GlcNAc(b1-3)Gal(b1-4)GlcNAc(b1-2)Man(a1-3)[Gal(b1-3)GlcNAc(b1-3)Gal(b1-4)GlcNAc(b1-2)Man(a1-6)]Man(b1-4)GlcNAc(b1-4)GlcNAc
# In short: as §1
# [24] = target: Gal(b1-3)GlcNAc(b1-3)Gal(b1-4)GlcNAc(b1-2)[Gal(b1-3)GlcNAc(b1-3)Gal(b1-4)GlcNAc(b1-6)]Man(a1-6)[Gal(b1-3)GlcNAc(b1-3)Gal(b1-4)GlcNAc(b1-2)Man(a1-3)]Man(b1-4)GlcNAc(b1-4)[Fuc(a1-6)]GlcNAc
# In short: as §1
# [25] = target: Gal(b1-3)GlcNAc(b1-3)Gal(b1-4)GlcNAc(b1-3)Gal(b1-4)GlcNAc(b1-2)[Gal(b1-3)GlcNAc(b1-3)Gal(b1-4)GlcNAc(b1-3)Gal(b1-4)GlcNAc(b1-6)]Man(a1-6)[Gal(b1-3)GlcNAc(b1-3)Gal(b1-4)GlcNAc(b1-3)Gal(b1-4)GlcNAc(b1-2)Man(a1-3)]Man(b1-4)GlcNAc(b1-4)[Fuc(a1-6)]GlcNAc
# In short: as §1
# [26] = target: Gal(b1-3)GlcNAc(b1-3)Gal(b1-4)GlcNAc(b1-6)[Gal(b1-3)GlcNAc(b1-3)]Gal(b1-4)Glc
# In short: as §1
# [27] = target: Gal(b1-3)GlcNAc(b1-3)Gal(b1-4)[Fuc(a1-3)]GlcNAc
# In short: as §1
# [28] = target: Gal(b1-3)GlcNAc(b1-3)Gal(b1-4)[Fuc(a1-3)]GlcNAc(b1-6)[Gal(b1-3)GlcNAc(b1-3)]Gal(b1-4)Glc
# In short: as §1
# [29] = target: Gal(b1-3)GlcNAc(b1-3)GalNAc
# In short: as §1
# [30] = target: Gal(b1-3)GlcNAc(b1-6)Gal(b1-4)GlcNAc
# In short: as §1
# [31] = target: Gal(b1-3)GlcNAc(b1-6)GalNAc
# In short: as §1
# [32] = target: Gal(b1-3)GlcNAc(b1-6)[Gal(b1-3)]GalNAc
# In short: as §1
# [33] = target: Gal(b1-3)GlcNAc6S
# In short: as §1
# [34] = target: Gal(b1-3)[Fuc(a1-4)]GlcNAc
# In short: as §1
# [35] = target: Gal(b1-3)[Fuc(a1-4)]GlcNAc(b1-2)Man
# In short: as §1
# [36] = target: Gal(b1-3)[Fuc(a1-4)]GlcNAc(b1-2)Man(a1-3)[Gal(b1-3)[Fuc(a1-4)]GlcNAc(b1-2)Man(a1-6)]Man(b1-4)GlcNAc(b1-4)[Fuc(a1-6)]GlcNAc
# In short: as §1
# [37] = target: Gal(b1-3)[Fuc(a1-4)]GlcNAc(b1-3)Gal(b1-3)[Fuc(a1-4)]GlcNAc
# In short: as §1
# [38] = target: Gal(b1-3)[Fuc(a1-4)]GlcNAc(b1-3)Gal(b1-4)[Fuc(a1-3)]GlcNAc
# In short: as §1
# [39] = target: Gal(b1-3)[Fuc(a1-4)]GlcNAc(b1-6)GalNAc
# In short: as §1
# [40] = target: Gal(b1-3)[GlcNAc(b1-6)]GalNAc
# In short: as §1
# [41] = target: Gal(b1-3)[Neu5Ac(a2-6)]GalNAc
# In short: as §1
# [42] = target: Gal(b1-3)[Neu5Ac(a2-6)]GlcNAc(b1-4)Gal(b1-4)Glc
# In short: as §1
# [43] = target: Gal(b1-3)[Neu5Ac(b2-6)]GalNAc
# In short: as §1
# [44] = target: Gal(b1-4)Gal
# In short: as §1
# [45] = target: Gal(b1-4)GalNAc(a1-3)[Fuc(a1-2)]Gal(b1-4)GlcNAc
# In short: as §1
binder,measurement,setting,value
CTAEGIKKFEGDGYELFKDNFPAGEKFDNDDTNDQFYTVIF [MUB40 (Lactobacillus reuteri)],glycan array binding signal (z-score),[1],0.029
same,glycan array binding signal (z-score),[2],-0.494
same,glycan array binding signal (z-score),[3],-0.076
same,glycan array binding signal (z-score),[4],-0.269
same,glycan array binding signal (z-score),[5],-0.387
same,glycan array binding signal (z-score),[6],-0.209
same,glycan array binding signal (z-score),[7],0.081
same,glycan array binding signal (z-score),[8],0.234
same,glycan array binding signal (z-score),[9],-0.491
same,glycan array binding signal (z-score),[10],-0.403
same,glycan array binding signal (z-score),[11],-0.254
same,glycan array binding signal (z-score),[12],-0.282
same,glycan array binding signal (z-score),[13],-0.749
same,glycan array binding signal (z-score),[14],-0.32
same,glycan array binding signal (z-score),[15],-0.187
same,glycan array binding signal (z-score),[16],-0.46
same,glycan array binding signal (z-score),[17],0.158
same,glycan array binding signal (z-score),[18],1.03
same,glycan array binding signal (z-score),[19],-0.593
same,glycan array binding signal (z-score),[20],-0.49
same,glycan array binding signal (z-score),[21],-0.282
same,glycan array binding signal (z-score),[22],-0.012
same,glycan array binding signal (z-score),[23],4.29
same,glycan array binding signal (z-score),[24],0.063
same,glycan array binding signal (z-score),[25],-0.204
same,glycan array binding signal (z-score),[26],-0.311
same,glycan array binding signal (z-score),[27],-0.331
same,glycan array binding signal (z-score),[28],0.154
same,glycan array binding signal (z-score),[29],0.226
same,glycan array binding signal (z-score),[30],-0.209
same,glycan array binding signal (z-score),[31],-0.239
same,glycan array binding signal (z-score),[32],0.634
same,glycan array binding signal (z-score),[33],0.047
same,glycan array binding signal (z-score),[34],-0.13
same,glycan array binding signal (z-score),[35],-0.308
same,glycan array binding signal (z-score),[36],-0.297
same,glycan array binding signal (z-score),[37],-0.394
same,glycan array binding signal (z-score),[38],-0.101
same,glycan array binding signal (z-score),[39],-0.329
same,glycan array binding signal (z-score),[40],-0.493
same,glycan array binding signal (z-score),[41],0.004
same,glycan array binding signal (z-score),[42],-0.18
same,glycan array binding signal (z-score),[43],-0.4
same,glycan array binding signal (z-score),[44],-0.36
same,glycan array binding signal (z-score),[45],-0.324
